Experimental data: PubChem BioAssay AID504333 (National Center for Advancing Translational Sciences (NCATS), 2011)
Hit rate of the full screen: of about 360,000 compounds, about 16,000 (4.4%) were called active. The inconclusive results got no clear call from the source; some entries with a clear call stand among them for comparison. Calls follow the shape of the dose curve; as a rule, active = well fitted inhibition curve with a large enough effect; inconclusive = small, poorly fitted or top-dose-only effect; inactive = no such curve, though single readings can be large or run the other way. A potency beside an inconclusive call is a rough fit, not a confirmed value.
% is scaled to controls: 0 for no effect and ±100 for the full control effect; potency is read from the fitted curve at half-maximal effect; tags tell the direction and shape of the fitted curve.
Also: nearly all actives have a fitted effect of over 60% in size.

These compounds were tested against Bromodomain adjacent to zinc finger domain protein 2B (Homo sapiens) (UniProt Q9UIF8) (assay: qHTS Assay for Inhibitors of BAZ2B). Conditions: AlphaScreen BAZ2B-H3K14Ac peptide displacement; activity change, negative = inhibition: at 114 µM (top of the series).
UniProt Q9UIF8, sequence (Q9UIF8 whole entry, looked up, the tested form may be a part): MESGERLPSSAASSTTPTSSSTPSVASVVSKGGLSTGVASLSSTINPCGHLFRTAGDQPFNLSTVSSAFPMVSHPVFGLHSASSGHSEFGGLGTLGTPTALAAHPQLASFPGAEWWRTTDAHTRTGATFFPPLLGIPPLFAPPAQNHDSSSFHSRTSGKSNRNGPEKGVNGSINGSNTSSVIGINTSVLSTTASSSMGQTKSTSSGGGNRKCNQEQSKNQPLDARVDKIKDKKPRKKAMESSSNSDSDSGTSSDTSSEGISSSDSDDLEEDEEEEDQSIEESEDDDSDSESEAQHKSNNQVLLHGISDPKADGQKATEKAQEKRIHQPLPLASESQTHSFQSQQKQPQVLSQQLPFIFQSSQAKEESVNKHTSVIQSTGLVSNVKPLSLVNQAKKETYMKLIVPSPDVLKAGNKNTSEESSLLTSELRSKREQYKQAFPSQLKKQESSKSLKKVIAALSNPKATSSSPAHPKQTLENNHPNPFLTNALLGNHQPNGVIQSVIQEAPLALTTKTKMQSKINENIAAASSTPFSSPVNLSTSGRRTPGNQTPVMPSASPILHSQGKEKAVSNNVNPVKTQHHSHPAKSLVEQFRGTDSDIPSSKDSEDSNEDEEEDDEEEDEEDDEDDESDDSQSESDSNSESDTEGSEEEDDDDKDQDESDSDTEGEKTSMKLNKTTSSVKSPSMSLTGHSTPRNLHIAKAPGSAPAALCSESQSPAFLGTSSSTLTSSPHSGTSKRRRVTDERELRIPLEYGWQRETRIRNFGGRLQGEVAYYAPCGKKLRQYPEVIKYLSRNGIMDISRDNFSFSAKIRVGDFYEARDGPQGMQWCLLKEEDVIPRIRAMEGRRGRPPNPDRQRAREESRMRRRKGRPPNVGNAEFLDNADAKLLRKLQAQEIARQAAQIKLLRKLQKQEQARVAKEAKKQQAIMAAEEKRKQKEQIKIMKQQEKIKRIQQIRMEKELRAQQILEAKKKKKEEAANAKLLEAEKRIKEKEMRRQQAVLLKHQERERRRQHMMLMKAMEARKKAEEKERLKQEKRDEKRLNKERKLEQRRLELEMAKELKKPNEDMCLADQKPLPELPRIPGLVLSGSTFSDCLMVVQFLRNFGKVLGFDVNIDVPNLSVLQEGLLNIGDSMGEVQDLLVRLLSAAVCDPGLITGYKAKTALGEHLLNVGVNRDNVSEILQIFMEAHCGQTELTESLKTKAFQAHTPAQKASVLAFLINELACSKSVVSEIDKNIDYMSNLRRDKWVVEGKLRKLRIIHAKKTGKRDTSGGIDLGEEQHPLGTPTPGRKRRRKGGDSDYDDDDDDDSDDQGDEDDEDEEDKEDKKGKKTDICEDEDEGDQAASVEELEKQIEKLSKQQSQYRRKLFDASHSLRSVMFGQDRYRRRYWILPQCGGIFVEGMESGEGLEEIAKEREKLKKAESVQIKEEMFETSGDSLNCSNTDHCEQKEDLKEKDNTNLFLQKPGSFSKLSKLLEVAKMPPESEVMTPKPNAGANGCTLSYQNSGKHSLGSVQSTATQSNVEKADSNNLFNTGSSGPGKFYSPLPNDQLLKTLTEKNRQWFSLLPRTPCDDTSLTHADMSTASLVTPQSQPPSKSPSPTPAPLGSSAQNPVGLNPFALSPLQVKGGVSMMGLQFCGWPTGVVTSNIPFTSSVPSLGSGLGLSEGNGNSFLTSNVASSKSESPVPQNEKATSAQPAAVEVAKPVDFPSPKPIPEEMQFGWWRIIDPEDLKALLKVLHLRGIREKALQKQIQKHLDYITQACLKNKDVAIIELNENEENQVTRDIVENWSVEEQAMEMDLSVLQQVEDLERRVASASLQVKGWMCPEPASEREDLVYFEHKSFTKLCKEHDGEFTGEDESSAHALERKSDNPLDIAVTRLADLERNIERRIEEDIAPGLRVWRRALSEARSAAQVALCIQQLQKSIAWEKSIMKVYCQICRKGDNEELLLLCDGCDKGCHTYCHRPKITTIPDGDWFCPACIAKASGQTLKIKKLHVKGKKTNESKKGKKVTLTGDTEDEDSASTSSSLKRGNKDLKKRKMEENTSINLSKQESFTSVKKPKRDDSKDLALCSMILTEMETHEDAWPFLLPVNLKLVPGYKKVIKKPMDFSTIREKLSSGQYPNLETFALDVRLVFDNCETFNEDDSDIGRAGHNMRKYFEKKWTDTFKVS
Procedure, shortened: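 Multi-concentration screen (max 110 uM) measuring displacement of acetylated histone H3 peptide from BAZ2B by AlphaScreen, using 50 nM protein, 50 nM peptide and 10 ug/mL streptavidin donor plus Ni-chelate acceptor beads.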
For `Cc1cc(=O)n(CCc2ccccc2)c(O)c1C#N`, the Potency was inconclusive: 89.1 µM [inhibitor, single point].
With `O=C(NN1C(=O)/C(=C/c2ccc(O)cc2)SC1=S)c1ccccc1O` the Potency was active: 39.8 µM.
In the case of `CCc1ccccc1NC1=NCC(=O)N1Cc1ccc(OC)cc1`, the Potency is reported as inconclusive: 89.1 µM [inhibitor, single point].
With `COc1ccc(Nc2ccc(N3C(=O)CC(C)C3=O)cc2[N+](=O)[O-])cc1OC` (stereo not given) the Potency was inconclusive: 50.1 µM [inhibitor, partial curve, poor fit].
In the case of `COc1ccc(NC(=O)CSc2n[nH]c(-c3ccccn3)n2)cc1`, the Potency is reported as active: 3.55 µM.
For `CCCCCOC(=O)Cn1c(=O)oc2ccccc21`, the “activity change, negative = inhibition” value was inactive: 15.3%.
In the case of `CC1=C(C)CS(=O)N(S(=O)(=O)c2ccc(Cl)cc2)C1` (stereo not given), the “activity change, negative = inhibition” value is reported as inactive: 1.7%.
For `CCOC(=O)CCCc1sc(N)nc1-c1[nH]c(=O)[nH]c1C`, the Potency was active: 6.31 µM.
For `Cc1ccc(/C=N/n2cnc3sc4c(c3c2=O)CCCC4)o1`, the Potency was inconclusive: 89.1 µM [inhibitor, single point].
With `CCOC(=O)N1CCC(NC(=O)c2ccc3c(c2)N=C(C)c2ccccc2S3)CC1` the “activity change, negative = inhibition” value was inactive: -21.6%.
In the case of `COc1cc(/C=C(\C(=O)O)c2ccc(S(=O)(=O)N3CCCC3)s2)cc(OC)c1`, the “activity change, negative = inhibition” value is reported as inactive: -38.9%.
With `O=C(C1CCCN(c2ncnc3c2nc2n3CCCCC2)C1)N1CCN(c2ccc(Cl)cc2)CC1` (stereo not given) the Potency was inconclusive: 10 µM [inhibitor, full curve].
In the case of `Cc1csc(NC(=O)C2=NN(c3ccccc3)C(=O)CC2)n1`, the Potency is reported as inconclusive: 89.1 µM [inhibitor, single point].
With `O=C(CC1SC(=Nc2ccccc2)N(Cc2ccccn2)C1=O)Nc1cccc(Cl)c1` (stereo not given) the Potency was inconclusive: 79.4 µM [inhibitor, single point].
In the case of `O=C(NCc1ccco1)C(=O)c1c[nH]c2ccccc12`, the Potency is reported as inconclusive: 50.1 µM [inhibitor, partial curve].
With `CC(C)C[C@@H]1NC(=O)[C@H](Cc2ccc(O)cc2)NC(=O)c2cc([N+](=O)[O-])cc(I)c2NCCC[C@@H](C(N)=O)NC1=O` the Potency was inconclusive: 89.1 µM [inhibitor, single point].
`CC(=O)/C(N=Nc1ccc(C(=O)O)cc1[N+](=O)[O-])=C(\C)O` was tested, and the Potency was active: 56.2 µM.
For `O=C(Nc1nc(-c2cccc([N+](=O)[O-])c2)cs1)c1cccc([N+](=O)[O-])c1C(=O)O`, the Potency was inconclusive: 79.4 µM [inhibitor, single point].
For `CCOC(=O)c1c(N)sc(C(=O)N2CCCCCC2)c1C`, the “activity change, negative = inhibition” value was inactive: 4.17%.
In the case of `O=C(c1cccnc1)N1CCN(Cc2ccc3c(c2)OCO3)CC1`, the Potency is reported as active: 50.1 µM.
`CC1CC(=O)NN1C(=O)c1ccccc1` (stereo not given) was tested, and the Potency was active: 79.4 µM.
In the case of `Cc1ccc(-n2ncc3c(N4CCN(C)CC4)ncnc32)cc1C`, the “activity change, negative = inhibition” value is reported as inactive: -6.65%.
For `O=C(NC1CC1)C1CCN(S(=O)(=O)c2cc([N+](=O)[O-])ccc2Cl)CC1`, the Potency was active: 31.6 µM.
`CCc1cccc(C)c1NC(=S)NCc1ccc2[nH]c(C)cc2c1` was tested, and the Potency was active: 39.8 µM.
With `CC1CN(S(=O)(=O)c2cc(C(=O)NCCC3=CCCCC3)ccc2Cl)CC(C)O1` (stereo not given) the “activity change, negative = inhibition” value was inactive: 2.75%.
For `O=C1c2ccccc2C(=O)c2c1oc(C(F)(F)F)c2C(=O)c1ccccc1`, the Potency was active: 7.08 µM.
In the case of `COc1ccc(C(CCNCc2ccc(N(C)C)cc2)c2ccccc2)cc1` (stereo not given), the Potency is reported as active: 11.2 µM.
For `COc1ccc(N2CCN(C(=O)c3ccc(C)cc3Cl)CC2)cc1`, the Potency was inconclusive: 89.1 µM [inhibitor, single point].
For `Cc1ccc(NC(=O)CN(C)C(=O)c2cccc(-n3cccc3)c2)cc1`, the Potency was active: 11.2 µM.
For `O=C(CN(Cc1ccco1)Cc1ccco1)Nc1cc(S(=O)(=O)N2CCCCC2)ccc1Cl`, the “activity change, negative = inhibition” value was inactive: -3.64%.
With `CCc1ccccc1NC(=O)CCS(=O)(=O)c1cccc2nonc12` the “activity change, negative = inhibition” value was inactive: 7.01%.
For `O=C(NNc1ccc(O)cc1)c1ccc(Br)cc1`, the Potency was inconclusive: 50.1 µM [inhibitor, partial curve].
For `CCn1c(C)c(C)c2cc(C(=O)NCc3cccc(C)c3)ccc21`, the “activity change, negative = inhibition” value was inactive: -36.7%.
`Cc1cc(-c2nnc(SCC(=O)Nc3ccc(C)c(C)c3)n2N)n[nH]1` was tested, and the Potency was inconclusive: 63.1 µM [inhibitor, partial curve, poor fit].
In the case of `Cc1cc(N2CCN(C)CC2)nc2ccc(NC(=O)c3ccc(Br)o3)cc12`, the “activity change, negative = inhibition” value is reported as inactive: -13.4%.
With `COc1cnc(N(C)C)nc1Sc1cccc(Cl)c1` the Potency was inconclusive: 100 µM [inhibitor, single point].
With `O=C(NCc1ccco1)C1CCN(c2nc3ccccc3n2Cc2ccccc2F)CC1` the Potency was inconclusive: 79.4 µM [inhibitor, single point].
For `COc1ccccc1C(=O)Nc1ccnn1C1CCN(Cc2cc(C)c(C)cc2C)CC1`, the Potency was inconclusive: 79.4 µM [inhibitor, single point].
`Cc1cccc(Cn2c(=O)c3c(nc4n3CCN4Cc3ccco3)n(C)c2=O)c1` was tested, and the Potency was inconclusive: 89.1 µM [inhibitor, single point].
For `O=C(NC1CCCCC1)c1ccc2c(c1)N(Cc1ccc(Cl)cc1)C(=O)c1ccccc1S2=O` (stereo not given), the “activity change, negative = inhibition” value was inactive: -6.93%.
With `CC1(C)Cc2ccccc2/C(=C/C(=O)N2CCCCCC2)N1` the Potency was active: 56.2 µM.
In the case of `CN(CCOc1ccc(Cl)cc1)C(=O)CNS(=O)(=O)c1ccc(N(C)C)c([N+](=O)[O-])c1`, the Potency is reported as inconclusive: 28.2 µM [inhibitor, partial curve].
`O=C(N/N=C/c1c(O)ccc2ccccc12)c1ccc(Br)o1` was tested, and the Potency was active: 56.2 µM.
In the case of `O=C(Nc1cccc(C(F)(F)F)c1)c1n[nH]c(Cn2cncn2)n1`, the Potency is reported as inconclusive: 89.1 µM [inhibitor, single point].
`CC(=O)NC1C(=O)N(CCN2CCOCC2)c2ccc(Cl)cc21` (stereo not given) was tested, and the Potency was active: 8.91 µM.
`Cc1c(C(=O)N2CCCCCC2)c(S(=O)(=O)NCc2ccccc2Cl)c(C)n1C` was tested, and the Potency was inconclusive: 79.4 µM [inhibitor, single point].
In the case of `Cc1cccc(N2CCN(c3nc4ccc(C)cc4n4cnnc34)CC2C)c1` (stereo not given), the Potency is reported as inconclusive: 25.1 µM [inhibitor, full curve, poor fit].
`COc1ccc(-n2ccnc(NCc3ccc(C)cc3)c2=O)cc1OC` was tested, and the “activity change, negative = inhibition” value was inactive: -29.1%.
For `COc1ccc(N2CCN(C(=O)c3cc(S(=O)(=O)N4CCC(C)CC4)cn3C)CC2)cc1`, the Potency was inconclusive: 79.4 µM [inhibitor, partial curve].
With `CSc1nc(=NC(C)=O)ss1` the Potency was inconclusive: 50.1 µM [inhibitor, partial curve].
With `COc1ccc(NC(=O)CCN2CCN(S(=O)(=O)c3cc(Cl)ccc3Cl)CC2)cc1` the Potency was inconclusive: 89.1 µM [inhibitor, single point].
In the case of `CC(C)c1nnc(NC(=O)CC(=O)Nc2ccccc2C(=O)O)s1`, the Potency is reported as inconclusive: 100 µM [inhibitor, single point].
For `Cc1ccc(-n2[nH]c(C)c(/C=N/N3C(=O)c4cccc5cccc(c45)C3=O)c2=O)cc1`, the “activity change, negative = inhibition” value was inactive: 1.55%.
In the case of `COc1cc(NC(=O)c2ccc(NC(=O)N3CCSc4ncccc43)cc2)cc(OC)c1`, the “activity change, negative = inhibition” value is reported as inactive: -28.7%.
With `C=CCOc1ccnc(-c2ccccc2)n1` the “activity change, negative = inhibition” value was inactive: 21.6%.
In the case of `COc1ccc(CCNCC2C(Oc3ccc(Cl)cc3)C(=O)N2c2ccccc2C)cc1OC` (stereo not given), the Potency is reported as inconclusive: 56.2 µM [inhibitor, partial curve].
For `CN(C)CCCNCCNC(=O)/C=N\O`, the Potency was inconclusive: 79.4 µM [inhibitor, partial curve].
`Cc1ccc(Cl)cc1N1CCN(C(=O)CN(c2ccccc2)S(=O)(=O)N(C)C)CC1` was tested, and the Potency was active: 44.7 µM.
With `O=C(c1ccc(CS(=O)c2ccccc2Cl)o1)N1CCN(c2cccc(Cl)c2)CC1` (stereo not given) the Potency was inconclusive: 50.1 µM [inhibitor, partial curve].
In the case of `COc1ccc(C(CNC(=O)c2cccc(N(C)C)c2)N2CCCC2)cc1` (stereo not given), the Potency is reported as active: 50.1 µM.
With `COc1c(-c2ccc(O)c(O)c2)oc2cc(O)cc(O)c2c1=O` the Potency was active: 35.5 µM.
In the case of `CC(CNC(=O)CCCn1c(=O)c2cccn2c2cccnc21)c1ccccc1` (stereo not given), the Potency is reported as inconclusive: 89.1 µM [inhibitor, single point].
For `CC1=CS(=O)(=O)CC1Sc1nc(C)n[nH]1` (stereo not given), the Potency was inconclusive: 79.4 µM [inhibitor, partial curve].
With `CC(C)c1nc(N2CCN(C(=O)c3ccccc3)CC2)c(C#N)c2c1COC(C)(C)C2` the “activity change, negative = inhibition” value was inactive: -30.3%.
With `Cc1nc(Sc2ccccc2)c(C#N)c(C)c1[N+](=O)[O-]` the Potency was inconclusive: 22.4 µM [inhibitor, full curve].
With `Cn1c(COc2ccccc2O)[n+](C)c2ccccc21` the “activity change, negative = inhibition” value was inactive: 2.94%.
With `CCOC(=O)C1CCCN(S(=O)(=O)c2csc(C(N)=O)c2)C1` (stereo not given) the “activity change, negative = inhibition” value was inactive: -15.9%.
With `CC1=C(C(=O)Nc2ccccc2)C(c2ccc(C)o2)n2c(s/c(=C\c3ccco3)c2=O)=N1` (stereo not given) the Potency was active: 50.1 µM.
With `O=C1C(Cc2c[nH]c3ccccc23)NC(=S)N1Cc1ccccc1` (stereo not given) the Potency was inconclusive: 39.8 µM [inhibitor, partial curve].
With `CN(O)/C=c1/ccc2c(n1)C(=O)C=CC=2` the Potency was active: 7.94 µM.
With `Cc1c2cnn(-c3ccccc3)c(=O)c2c(C)n1CC(=O)NCc1ccccc1` the Potency was inconclusive: 70.8 µM [inhibitor, single point].
With `COCCNC(=O)CSc1nc2ccccc2c(=O)n1CCC(=O)N1CCN(c2ccccc2)CC1` the “activity change, negative = inhibition” value was inactive: -11.6%.
`COc1ccc(/C=C2/SC(=S)N(CC(=O)O)C2=O)cc1OCc1ccc(Cl)cc1` was tested, and the activity change, negative = inhibition was inconclusive: -89.8% [inhibitor].
With `Cc1cccc(C(=O)NCC(=O)OCc2cc(=O)n3nc(C4CC4)sc3n2)c1` the “activity change, negative = inhibition” value was inactive: -16.8%.
`COCCn1c(SCC(=O)c2cc(C)n(C)c2C)nc2ccccc2c1=O` was tested, and the Potency was inconclusive: 39.8 µM [inhibitor, partial curve].
